Whole data set: some 33,000 sequences, median “E-score (-0.5 to 0.5)” near -0.012, cut for the highest 2% near 0.29. The list shows a part of the results.
The sequences below were run against T1, Ybr033w (UniProt P38073) (assay: PBM E-score (8-mer binding enrichment) (E-score (-0.5 to 0.5)); higher = stronger / more preferred TF binding; most listed sequences are background and not binding sites). Conditions: protein concentration: 200 nM; construct: GST-full length.
T1 sequence: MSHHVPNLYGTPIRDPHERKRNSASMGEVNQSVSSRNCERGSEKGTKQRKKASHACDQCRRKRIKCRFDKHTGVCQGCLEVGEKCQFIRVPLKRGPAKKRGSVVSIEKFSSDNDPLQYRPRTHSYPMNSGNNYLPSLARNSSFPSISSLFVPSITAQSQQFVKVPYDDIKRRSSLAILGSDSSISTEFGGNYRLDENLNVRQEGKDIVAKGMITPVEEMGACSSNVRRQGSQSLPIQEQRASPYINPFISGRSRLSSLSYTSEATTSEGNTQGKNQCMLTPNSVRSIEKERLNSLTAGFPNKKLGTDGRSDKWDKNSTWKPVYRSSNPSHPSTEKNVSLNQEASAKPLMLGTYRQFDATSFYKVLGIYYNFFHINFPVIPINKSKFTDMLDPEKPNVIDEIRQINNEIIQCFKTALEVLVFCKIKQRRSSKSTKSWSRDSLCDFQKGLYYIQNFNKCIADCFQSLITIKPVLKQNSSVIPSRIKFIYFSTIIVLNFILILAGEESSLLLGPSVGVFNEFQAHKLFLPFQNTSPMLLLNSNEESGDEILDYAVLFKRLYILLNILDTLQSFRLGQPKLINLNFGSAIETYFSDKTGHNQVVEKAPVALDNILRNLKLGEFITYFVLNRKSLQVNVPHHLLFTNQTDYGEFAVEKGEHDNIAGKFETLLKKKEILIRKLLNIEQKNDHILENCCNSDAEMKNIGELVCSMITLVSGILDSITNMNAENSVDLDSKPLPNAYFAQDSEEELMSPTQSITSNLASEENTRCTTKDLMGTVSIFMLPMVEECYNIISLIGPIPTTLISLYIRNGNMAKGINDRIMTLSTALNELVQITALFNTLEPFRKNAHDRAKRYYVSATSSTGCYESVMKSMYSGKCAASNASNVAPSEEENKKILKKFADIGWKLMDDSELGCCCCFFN
Summary of the method: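 Masliner-normalised scans of fluorescent anti-GST signal were the basis for scoring. That signal came from GST-tagged yeast transcription factors applied at about 100-200 nM to double-stranded universal all-10-mer Agilent arrays on fresh or once-stripped slides. Each ungapped eight-base word, pooled with its reverse complement, received an E-score from the Universal PBM Analysis Suite.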

Sequence	PBM E-score
CAGCACGA	-0.0474
CACGTAAC	-0.0872
GCCGCTAC	-0.121
AGTATGTG	0.118
TGTGAGAA	0.0323
ACGGGATC	0.0182
GAGAGTCA	-0.0369
TCCACCCA	-0.209
ATCAGCTC	0.0196
ATGTAGTA	0.243
GCACTGAA	0.2
TAAGTCTA	0.019
CTAACCCA	-0.159
TGTTGAAA	0.205
CTTTAGGA	-0.0366
CGGCCCCC	-0.425
GGTTAACC	-0.0947
AAGCGTCA	0.0898
GGCCGCCC	-0.348
AACCTTTG	0.0759
AACATTCC	0.0163
CGATTCCA	-0.0329
AGGTTACC	0.0897
CGAGGTTC	0.0874
ATGAAACC	0.141

Sequence	PBM E-score
AGTCCCAA	-0.122
AATTGTGA	0.215
CGGAGTTC	0.0444
AGTCTTAA	-0.0706
CCATAACA	0.132
GTTGAGTA	0.127
ACCGCTCG	-0.0768
CTAGCTAA	0.064
ATTGGGTC	-0.0771
ATTTCTAA	0.0907
AGCGCGAC	0.00346
CCCAGAAC	-0.0921
AATCCTAC	0.0522
ATTCGGCA	0.0438
AGTCCAGC	-0.114
CATCAAGC	0.0807
TCGTATCA	0.142
GAGCGCAA	-0.0711
GCGGGTTA	0.0659
CCGCGAGA	-0.255
CGAGTCAC	-0.136
CGTTTGAC	0.0667
AAATTATC	0.418
AGATTGAC	0.0305
GTGTAGGA	0.0894

Sequence	PBM E-score
GACGTAAC	0.0557
GAAGGATA	0.0784
ACAGGCGC	-0.301
AGCAGAAG	-0.0294
CACGCGAA	-0.0782
AATCTGCA	0.00952
CACAAGTG	-0.0893
GTGTATGA	-0.114
ACGGTTAA	0.0249
ATGATCGG	-0.0454
ATTTATGA	0.206
ATCCTTTA	0.176
AGAGGTAT	0.163
CACTATCA	0.101
TCTTTGAA	0.214
GAACAAAA	0.217
AACCAAAA	0.182
CAGTTCAA	0.0688
CCCACATA	-0.0626
ACCCAGGA	-0.0663
ATTTCTAG	0.241
CCAGCACA	-0.0703
CGCTCCGC	-0.132
GTAGTGAA	0.0398
TAGGCTAA	0.0975

Sequence	PBM E-score
CCGAATAG	0.0196
ACCTAGGC	-0.129
CATCAGTC	-0.196
ACGTGGAT	0.00577
ACCCCAAC	-0.0304
ACGCAGTG	-0.224
CCACACTC	-0.0722
ACTCTGCT	-0.0237
ATGCGAGC	-0.0162
ATACAAAA	0.311
ACACTTTC	-0.0624
GCACGTAC	-0.215
ACAAAGAC	0.0319
CTCTAAGC	-0.00489
GCTGTGTA	-0.00292
CATAGGGA	0.0585
CCCCCTCA	-0.359
AGTTACTC	0.14
ACTGTGTA	0.0683
ATATTTTG	0.234
ACGCTATA	-0.127
CCTTTTAG	-0.0761
AAATTGAC	0.108
ATATATAA	0.332
ATGTCTCA	0.0261

Sequence	PBM E-score
CCCGTATA	-0.0353
TCCTACGA	-0.156
TTCCCGAA	0.25
AGTGGGGA	-0.155
AAGCTCTC	-0.268
ACATTATC	0.219
CTAGGCAG	-0.0666
AATTCCTA	0.223
GAGTCACA	-0.0932
ACACCGGT	-0.173
ACATGGAA	-0.0243
CCACAACA	0.141
CGACCAGC	-0.0522
ACCGGGAT	-0.0699
AGTCATAC	-0.0136
ACCCTACG	-0.122
CGTTCCGA	-0.0534
GCACATCC	0.015
GGGAGGCA	-0.291
ATCCTCTC	-0.0385
GTCGCAAA	0.142
CGTACCCC	-0.105
AGGCTGTA	0.0666
ACAAAGAT	0.258
ACAATATA	0.264

Sequence	PBM E-score
CTCCAGTA	0.109
CTATGCAA	0.0892
CGCTCCTC	-0.284
ACTGCCAT	0.00233
TAACCAGA	0.0654
ATGTACAA	0.1
ACGGTACC	-0.0481
TAATTGAA	0.0974
CGAGATCG	-0.153
GATCCCGC	0.0311
AATCCCAT	0.0765
CCAGCGCC	-0.136
AGACGAAA	0.0293
AAGATGCA	0.194
CCGAGTCC	-0.136
GGATACCC	-0.00499
CGCGTCCA	-0.115
CGCCTTTC	-0.182
ATAAATGA	0.213
GCTTCTCA	-0.112
CCGGTAGG	-0.127
AACTACTC	0.119
CCTCGGGA	-0.162
AGTCTTTC	-0.113
CACTCGGC	-0.0886

Sequence	PBM E-score
ATGCACCA	-0.00737
AACTTTAC	0.238
AAGCGAAT	0.15
CATAATAG	0.134
GTACCACA	0.121
CGGGCAAC	-0.234
CGACCCGC	-0.195
CCATATCA	0.0559
AGCTTCAT	0.0861
GTTTTTTA	0.182
ACGCCTGG	0.00952
CTTATAAA	0.153
CGCAAACA	0.162
CTCCTGTA	-0.0209
CAAATAGC	0.0702
CAGTGGCC	-0.243
CCCCTTGC	-0.284
ACGACCGC	-0.0954
ACGGAACG	0.0187
ACTAGTTA	0.0573
CCTAATAC	0.149
ATGGCTGC	-0.295
GTCTAGTA	0.131
TCAGAAGA	-0.0313
AGTCATAA	0.152

Sequence	PBM E-score
CTGGGAAA	0.135
AATCAGAC	0.0659
CAGAGCTG	-0.114
TCATCTAA	0.0895
AGATGACA	-0.0646
GGAGAAAA	0.175
TATCCGGA	0.269
CCACAACG	-0.14
ATTCTTTA	0.222
GCCATGCA	-0.00628
CAATCGTG	-0.12
CCGGGGCG	-0.142
CATCCACG	-0.0395
GCCGTAAA	0.17
AAGGTCGA	-0.0242
GGTAGTAA	-0.031
GGTCGAAC	-0.0499
GCGCGCTA	0.143
GTATCTCA	0.239
AGATTGCG	0.0921
CACCGTCA	-0.00093
AATATATC	0.281
AGGAAAAT	0.379
ATTACCAC	0.228
AACTGACA	0.0411

Sequence	PBM E-score
GAAGCTTA	0.0854
GAGACGGC	-0.042
CGGCACCA	-0.1
CTATGTAC	0.0927
AACTAATC	0.192
GGATCAGA	-0.191
AATACCAA	0.195
GATTAAGA	0.213
AAGCCATA	0.0179
ACGCTCCC	-0.124
TCTTTTCA	0.0439
GAACGGTC	-0.157
GACCACTA	-0.046
AATAGACA	0.00401
AAATTGCG	0.0741
CTCTATGA	0.122
AGGAGAAA	0.221
GTGTACAA	0.232
GGCTTTAC	0.0346
ACCGGAGT	-0.111
ATCTAGAT	-0.0597
ACAAGTCC	0.058
AGGTTTGG	-0.0994
CAGTGCCA	-0.25
CTCTTAGC	-0.0614

Sequence	PBM E-score
ATGAACTC	0.0731
ATCAGTCA	0.00279
GAATAACA	0.367
CGACATCA	0.101
AGCGGCGC	-0.27
AGATAGTA	0.194
GGGAGCCA	-0.342
GAAGGGTC	-0.246
GCCCTTAA	-0.0102
CATCACAA	0.207
TATCGCCA	-0.0288
CCCGACGG	-0.164
ATAAGTTC	0.249
ACAAGTCT	0.061
TATCGACA	-0.119
GTGATCCA	-0.0579
GAACTACA	0.0742
CACTCGTC	-0.0452
AGACATAT	0.224
AAAGCCGG	-0.0185
CTACTCAG	-0.0742
CTAAGGGA	0.0981
TACGTGAA	-0.048
AATGCCTG	-0.153
AGCGGTCC	-0.0767

Sequence	PBM E-score
CATGCCAC	-0.103
AACAAGAG	0.00138
CTTTCACA	0.11
AAAATTAA	0.308
GCGGCCTA	-0.185
AAAGAGCT	-0.151
AGTTGAAT	0.149
CAGCTCGC	-0.00356
CTGAAAGC	0.0974
ATGGACTG	-0.0798
TCCACCAA	-0.00327
AATTTCTC	0.299
AAGGGATA	0.111
AACCAAGA	0.165
CGACAACC	-0.179
GCAAGCGA	-0.0415
AGGACCGC	-0.146
GAAATTTC	-0.0314
GAGTACTA	0.133
CGACTACA	0.0164
AGCTATAG	-0.241
GGGGGTAC	-0.254
AGCAAAGA	0.0215
AGGAGACT	-0.0682
AACGTTGG	0.102

Sequence	PBM E-score
CACGCTCA	0.0193
ATGTGCGA	-0.134
CGTGCGCC	0.0601
ATGGCGGA	-0.073
ATTGGTCC	0.0738
CACCAAGA	0.0521
GCGGATAC	0.0188
CTCCACAA	0.0525
CCGAACGG	-0.0849
CTAAAGGA	0.0541
GGGTAGGA	0.0231
ATTTTTTG	0.274
GCCCAAAA	-0.0106
AGTGGCAA	0.0126
ATAAGTCG	-0.0957
AACCCTCC	-0.233
AAACGTTG	-0.111
CCCGGGTA	-0.0804
AGCGTATG	-0.00622
GACTCCTA	-0.079
AGCATCGC	-0.108
CTTAGAAG	-0.0147
AACGACTT	-0.174
CATTCTAC	-0.00379
CAGTCATG	-0.144

Sequence	PBM E-score
CAATACTA	0.143
CGGCTTAA	0.122
ACCGTGCG	-0.0796
AACATACA	0.179
AGCAATAG	0.0737
GTTCCTCA	0.0553
AGAGGCTA	-0.165
GTAGGCAA	-0.0668
ACGTCGTG	0.00905
GATCTACC	0.00163
CCCCACAG	-0.282
TATCCACA	0.126
CTATGGAC	-0.0707
ACGTCTTG	0.0663
ATTGCTGG	-0.156
AGTTTCCA	0.0916
GATTTATA	0.232
CGGGCTGC	-0.248
CTGGCTAC	-0.327
ATGTGTCA	0.119
ACAATCCT	0.212
CACATATG	-0.058
AACCCTGC	-0.253
CGTAGCTA	-0.181
AACTCTGG	-0.0682

Sequence	PBM E-score
ACCCGCCC	-0.187
GTACCTAA	-0.0687
AATAATCC	0.439
GAGTATGA	0.0866
ACTATTGA	0.243
TCCGATAA	0.0588
AGTGGATA	0.2
GACGGATA	0.0415
ATCGCTTA	-0.117
TGCACTAA	0.236
CGGGGGAG	-0.329
AGCACATC	0.0551
AGATTCGG	0.0497
CCCCTACG	-0.298
CGCACTAC	-0.202
CCAGCTTC	0.0144
CAAGGATA	0.112
ACCACTTG	0.0378
CACGGTAG	-0.00774
